Experimental data taken from the supplement of paper PMC4466236.
In all, about 33,000 sequences were measured (“E-score (dimensionless, -0.5 to 0.5)”: median about -0.058, highest 2% from about 0.35 on). This is one part of the list.

Test system: MvaT
Assay: PBM 8-mer E-score (mean of HK and ME arrays) (E-score (dimensionless, -0.5 to 0.5)); higher = stronger relative binding preference; most listed sequences are background and not binding sites
Description: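 Protein binding microarray: GST-tagged full-length MvaT (P. aeruginosa PAO1) bound to two universal double-stranded 60-mer arrays (ME and HK), each with a constant 25-mer primer and a variable 35-mer region covering all 8-mers. The 8-mer E-score (rank-based, range -0.5 to 0.5, >0.45 = specific binding) is the mean of the two arrays.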

| Sequence | PBM 8-mer E-score |
| --- | --- |
| ACCCTGCG | -0.237 |
| CAGGCTGA | -0.0844 |
| CGGGTTGA | -0.0597 |
